Lines with a small IC50 respond at low doses; a limit (>, <) means that the fit lies beyond the doses tested. The AUC spans the tested range (256-fold, ending at the top dose) of the same fit; values near 1 show little effect. The top dose, if marked as inferred, is not printed in the source and was worked back from the curve model. For some assays here: Drugs with an entry number were screened twice under separate entries, and the two screens often disagree.
Assays:
Assay in all cases: Viability of human cancer cell lines after 72 h of drug (GDSC screen)
[1] = compound: O=C(NCCCNc1nc(Nc2cccc(NC(=O)N3CCCC3)c2)ncc1I)c1cccs1 [BX-795]; conditions: top dose 5 µM; top dose inferred
Protocol: (§1)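 Human cancer cell lines in 384-well plates, medium with 10% serum, drug for 72 h over a 256-fold dose range (nine 2-fold or five 4-fold steps up to the top dose). Adherent lines were fixed and stained with the nucleic acid dye Syto60, suspension lines read with resazurin; signal relative to control wells, capped at 0 and 100%. One two-parameter sigmoid per drug and line, fitted in a mixed model over all curves with the slope shared within a line.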

[2] = compound: Cc1cccc(-c2[nH]c(C(C)(C)C)nc2-c2ccc3c(c2)OCO3)n1 [SB-505124]; conditions: top dose 10 µM; top dose inferred
Protocol: as §1

[3] = compound: CC1=C(/C=C/C(C)=C/C=C/C(C)=C/C(=O)O)C(C)(C)CCC1 [Tretinoin]; conditions: top dose 10 µM; top dose inferred
Protocol: as §1

[4] = compound: COc1cc2c(NC3CCN(C(C)C)CC3)nc(C3CCCCC3)nc2cc1OCCCN1CCCC1 [UNC0638]
Protocol: as §1

[5] = compound: CCn1c(-c2nonc2N)nc2c(C#CC(C)(C)O)ncc(OC[C@H]3CCCNC3)c21 [GSK690693]; conditions: top dose 10.24 µM; top dose inferred
Protocol: as §1

[6] = top dose 20 µM, screen: GDSC drug entry 1236, top dose inferred
[7] = top dose 40 µM, screen: GDSC drug entry 245

Row | Cell Line | AUC [1] | IC50 [1] [µM] | AUC [2] | IC50 [2] [µM] | AUC [3] | IC50 [3] [µM] | AUC [4, 6] | IC50 [4, 6] [µM] | AUC [5] | IC50 [5] [µM] | AUC [4, 7] | IC50 [4, 7] [µM]
1 | NCI-H146 (small cell lung carcinoma, suspension) | 0.948 | > 5 | 0.992 | > 10 | 0.967 | > 10 | 0.847 | 10.4 |  |  |  | 
2 | NCI-H508 (large intestine, semi-adherent) | 0.895 | > 5 | 0.965 | > 10 | 0.726 | 4.38 | 0.803 | 19.9 |  |  |  | 
3 | NCI-H835 (lung carcinoid, suspension) | 0.939 | > 5 | 0.99 | > 10 | 0.987 | > 10 | 0.836 | 12.3 |  |  |  | 
4 | NCI-H1048 (small cell lung carcinoma, adherent) | 0.782 | 1.87 | 0.98 | > 10 | 0.98 | > 10 | 0.989 | > 20 | 0.806 | 4.6 | 0.942 | > 40
5 | NCI-H1105 (small cell lung carcinoma, suspension) | 0.809 | 2.07 | 0.991 | > 10 | 0.981 | > 10 | 0.941 | > 20 |  |  |  | 
6 | NCI-H1341 (small cell lung carcinoma, suspension) | 0.909 | > 5 | 0.947 | > 10 | 0.972 | > 10 | 0.918 | > 20 |  |  |  | 
7 | NCI-N87 (stomach, adherent) | 0.964 | > 5 | 0.955 | > 10 | 0.966 | > 10 | 0.869 | > 20 |  |  |  | 
8 | OCI-LY7 (B-cell lymphoma, suspension) | 0.613 | 0.585 | 0.993 | > 10 | 0.956 | > 10 | 0.855 | 9.38 |  |  |  | 
9 | PWR-1E (prostate, adherent) | 0.811 | 2.63 | 0.986 | > 10 | 0.948 | > 10 | 0.986 | > 20 |  |  |  | 
10 | RCH-ACV (B-cell leukaemia, suspension) | 0.638 | 0.697 | 0.98 | > 10 | 0.96 | > 10 | 0.825 | 9.25 |  |  |  | 
11 | RH-18 (rhabdomyosarcoma, adherent) | 0.894 | > 5 | 0.983 | > 10 | 0.939 | > 10 | 0.644 | 3.33 |  |  |  | 
12 | RKN (ovary, adherent) | 0.767 | 1.97 | 0.85 | 8.24 | 0.985 | > 10 | 0.808 | 11.1 | 0.944 | > 10.2 | 0.738 | 12.5
13 | RVH-421 (melanoma, adherent) | 0.887 | > 5 | 0.964 | > 10 | 0.973 | > 10 | 0.76 | 9.58 | 0.939 | > 10.2 | 0.682 | 9.8

Reference: the supplement of paper PMC4967469
